Laboratory results from the supplement of paper PMC4967469.
pIC50: −log10 of the molar value. The IC50 comes from the fitted curve, where viability falls to half of the control; a limit (>, <) means that the fit lies beyond the doses tested. AUC is the area under the same curve over the 256-fold range up to the top dose, as a fraction: 1 means no effect, lower means more sensitive. For some assays here: An inferred top dose comes from the curve model; the source does not state it.

Assays:
Test in all cases: Viability of human cancer cell lines after 72 h of drug (GDSC screen)
Axitinib = compound: CNC(=O)c1ccccc1Sc1ccc2c(/C=C/c3ccccn3)n[nH]c2c1 [Axitinib]; settings: top dose 2 µM
Experimental: (§1)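 Human cancer cell lines in 384-well plates, medium with 10% serum, drug for 72 h over a 256-fold dose range (nine 2-fold or five 4-fold steps up to the top dose). Adherent lines were fixed and stained with the nucleic acid dye Syto60, suspension lines read with resazurin; signal relative to control wells, capped at 0 and 100%. One two-parameter sigmoid per drug and line, fitted in a mixed model over all curves with the slope shared within a line.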

Vorinostat = compound: O=C(CCCCCCC(=O)Nc1ccccc1)NO [Vorinostat]; settings: top dose 10 µM
Experimental: as §1

SN-38 = compound: CCc1c2c(nc3ccc(O)cc13)-c1cc3c(c(=O)n1C2)COC(=O)[C@]3(O)CC [SN-38]; settings: top dose 0.05 µM; top dose inferred
Experimental: as §1

Dabrafenib = compound: CC(C)(C)c1nc(-c2cccc(NS(=O)(=O)c3c(F)cccc3F)c2F)c(-c2ccnc(N)n2)s1 [Dabrafenib]; settings: top dose 10 µM
Experimental: as §1

Methotrexate = compound: CN(Cc1cnc2nc(N)nc(N)c2n1)c1ccc(C(=O)N[C@@H](CCC(=O)O)C(=O)O)cc1 [Methotrexate]; settings: top dose 0.2 µM
Experimental: as §1

Row | Cell Line | AUC (Axitinib) | pIC50 (Axitinib) | AUC (Vorinostat) | pIC50 (Vorinostat) | AUC (SN-38) | pIC50 (SN-38) | AUC (Dabrafenib) | pIC50 (Dabrafenib) | AUC (Methotrexate) | pIC50 (Methotrexate)
1 | JHOS-4 (ovary, adherent) | 0.957 | < 5.70 | 0.832 | < 5.00 | 0.747 | 7.65 | 0.973 | < 5.00 | 0.974 | < 6.70
2 | H2731 (mesothelioma, adherent) | 0.861 | < 5.70 | 0.741 | 5.47 | 0.891 | < 7.30 | 0.936 | < 5.00 | 0.984 | < 6.70
3 | Ca-Ski (cervix, adherent) | 0.887 | < 5.70 | 0.677 | 5.68 | 0.536 | 8.40 | 0.95 | < 5.00 | 0.94 | < 6.70
4 | RH-1 (rhabdomyosarcoma, adherent) | 0.985 | < 5.70 | 0.684 | 5.73 | 0.439 | 8.66 | 0.816 | 5.35 | 0.9 | 6.74
5 | QGP-1 (pancreas, adherent) | 0.975 | < 5.70 | 0.94 | < 5.00 | 0.966 | < 7.30 | 0.974 | < 5.00 | 0.967 | < 6.70
6 | A3-KAW (B-cell lymphoma, suspension) | 0.988 | < 5.70 | 0.477 | 6.26 | 0.338 | 8.91 | 0.511 | 6.18 | 0.709 | 7.38
7 | GDM-1 (acute myeloid leukaemia, suspension) | 0.908 | < 5.70 | 0.727 | 5.58 | 0.543 | 8.39 | 0.772 | 5.43 | 0.987 | < 6.70
8 | RF-48 (stomach, adherent) | 0.984 | < 5.70 | 0.776 | 5.35 | 0.785 | 7.61 | 0.958 | < 5.00 | 0.918 | < 6.70
9 | CAL-39 (cervix, adherent) | 0.975 | < 5.70 | 0.708 | 5.61 | 0.643 | 8.10 | 0.935 | < 5.00 | 0.986 | < 6.70
10 | QIMR-WIL (acute myeloid leukaemia, suspension) | 0.884 | < 5.70 | 0.54 | 6.10 | 0.562 | 8.34 | 0.752 | 5.49 | 0.697 | 7.36
11 | D-502MG (glioma, adherent) | 0.916 | < 5.70 | 0.837 | < 5.00 | 0.545 | 8.35 | 0.837 | < 5.00 | 0.976 | < 6.70
12 | LU-165 (small cell lung carcinoma, suspension) | 0.985 | < 5.70 | 0.987 | < 5.00 | 0.87 | < 7.30 | 0.938 | < 5.00 | 0.955 | < 6.70
13 | HCC-44 (lung adenocarcinoma, adherent) | 0.984 | < 5.70 | 0.729 | 5.56 | 0.659 | 8.07 | 0.978 | < 5.00 | 0.959 | < 6.70
14 | SNU-81 (large intestine, adherent) | 0.95 | < 5.70 | 0.816 | 5.09 | 0.882 | < 7.30 | 0.98 | < 5.00 | 0.871 | < 6.70
15 | OVCA420 (ovary, adherent) | 0.973 | < 5.70 | 0.779 | 5.25 | 0.858 | < 7.30 | 0.916 | < 5.00 | 0.981 | < 6.70
16 | ABC-1 (lung adenocarcinoma, adherent) | 0.847 | 5.71 | 0.72 | 5.52 | 0.582 | 8.26 | 0.921 | < 5.00 | 0.983 | < 6.70
17 | CAL-72 (osteosarcoma, adherent) | 0.945 | < 5.70 | 0.738 | 5.46 | 0.617 | 8.16 | 0.911 | < 5.00 | 0.917 | < 6.70
18 | DMS-114 (small cell lung carcinoma, adherent) | 0.88 | < 5.70 | 0.774 | 5.34 | 0.804 | 7.53 | 0.889 | < 5.00 | 0.977 | < 6.70
19 | MHH-PREB-1 (B-cell leukaemia, suspension) | 0.96 | < 5.70 | 0.543 | 6.09 | 0.716 | 7.93 | 0.943 | < 5.00 | 0.447 | 8.04
20 | JEG-3 (urogenital system, adherent) | 0.938 | < 5.70 | 0.747 | 5.53 | 0.734 | 7.87 | 0.985 | < 5.00 | 0.98 | < 6.70
21 | NCI-H1688 (small cell lung carcinoma, adherent) | 0.967 | < 5.70 | 0.7 | 5.61 | 0.881 | < 7.30 | 0.985 | < 5.00 | 0.984 | < 6.70
22 | ALL-PO (lymphoblastic leukaemia, suspension) | 0.822 | 5.90 | 0.318 | 6.73 | 0.908 | < 7.30 | 0.981 | < 5.00 | 0.807 | 6.96
23 | M059J (glioma, adherent) | 0.967 | < 5.70 | 0.823 | 5.18 | 0.654 | 8.06 | 0.976 | < 5.00 | 0.985 | < 6.70
24 | CAL-85-1 (breast, adherent) | 0.976 | < 5.70 | 0.865 | < 5.00 | 0.765 | 7.63 | 0.973 | < 5.00 | 0.975 | < 6.70
25 | HUTU-80 (digestive system, adherent) | 0.713 | 6.36 | 0.576 | 6.01 | 0.338 | 8.92 | 0.967 | < 5.00 | 0.97 | < 6.70
26 | PL4 (pancreas, adherent) | 0.986 | < 5.70 | 0.782 | 5.36 | 0.733 | 7.83 | 0.915 | < 5.00 | 0.95 | < 6.70
